The values that follow come from publication PMC9911399, “Two distinct binding modes provide the RNA-binding protein RbFox with extraordinary sequence specificity”.

To fix the notation:
T1: RBFOX1 RRM (Homo sapiens, UniProt Q9NWB1 109-208)
T1 sequence: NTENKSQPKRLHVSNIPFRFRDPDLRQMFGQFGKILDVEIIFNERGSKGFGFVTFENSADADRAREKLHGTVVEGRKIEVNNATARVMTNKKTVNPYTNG

B1: CCCCCUU (DNA:RNA)
RNA: GGGAGACCGGAAUUCAGAUUGUCCCCCCCUUUUAAAUCCCGUCGUAGCCACCA
DNA 1: CAATCTGAATTCCGGTCTCCC
DNA 2: TGGTGGCTACGACGGGATT
B2: UCCAGAG (DNA:RNA)
RNA: B1 RNA with C25U, C28A, C29G, U30A, U31G
DNA 1: CAATCTGAATTCCGGTCTCCC
DNA 2: TGGTGGCTACGACGGGATT
B3: UACACGC (DNA:RNA)
RNA: B1 RNA with C25U, C26A, C28A, U30G, U31C
DNA 1: CAATCTGAATTCCGGTCTCCC
DNA 2: TGGTGGCTACGACGGGATT
B4: CUUGGUG (DNA:RNA)
RNA: B1 RNA with C26U, C27U, C28G, C29G, U31G
DNA 1: CAATCTGAATTCCGGTCTCCC
DNA 2: TGGTGGCTACGACGGGATT
B5: AACCAAA (DNA:RNA)
RNA: B1 RNA with C25A, C26A, C29A, U30A, U31A
DNA 1: CAATCTGAATTCCGGTCTCCC
DNA 2: TGGTGGCTACGACGGGATT
B6: GAUAGCC (DNA:RNA)
RNA: GGGAGACCGGAAUUCAGAUUGUCCGAUAGCCUUAAAUCCCGUCGUAGCCACCA
DNA 1: CAATCTGAATTCCGGTCTCCC
DNA 2: TGGTGGCTACGACGGGATT
B7: AAAGUCU (DNA:RNA)
RNA: B6 RNA with G25A, U27A, A28G, G29U, C31U
DNA 1: CAATCTGAATTCCGGTCTCCC
DNA 2: TGGTGGCTACGACGGGATT
B8: ACGGUGU (DNA:RNA)
RNA: B1 RNA with C25A, C27G, C28G, C29U, U30G
DNA 1: CAATCTGAATTCCGGTCTCCC
DNA 2: TGGTGGCTACGACGGGATT
B9: UGAGAUU (DNA:RNA)
RNA: B1 RNA with C25U, C26G, C27A, C28G, C29A
DNA 1: CAATCTGAATTCCGGTCTCCC
DNA 2: TGGTGGCTACGACGGGATT
B10: GUGCGCC (DNA:RNA)
RNA: B6 RNA with A26U, U27G, A28C
DNA 1: CAATCTGAATTCCGGTCTCCC
DNA 2: TGGTGGCTACGACGGGATT
B11: UAGAUAU (DNA:RNA)
RNA: B6 RNA with G25U, U27G, G29U, C30A, C31U
DNA 1: CAATCTGAATTCCGGTCTCCC
DNA 2: TGGTGGCTACGACGGGATT
B12: CGAGACC (DNA:RNA)
RNA: B6 RNA with G25C, A26G, U27A, A28G, G29A
DNA 1: CAATCTGAATTCCGGTCTCCC
DNA 2: TGGTGGCTACGACGGGATT
B13: CUCCAAU (DNA:RNA)
RNA: B1 RNA with C26U, C29A, U30A
DNA 1: CAATCTGAATTCCGGTCTCCC
DNA 2: TGGTGGCTACGACGGGATT
B14: CGUGACU (DNA:RNA)
RNA: B1 RNA with C26G, C27U, C28G, C29A, U30C
DNA 1: CAATCTGAATTCCGGTCTCCC
DNA 2: TGGTGGCTACGACGGGATT
B15: UUCCUUC (DNA:RNA)
RNA: B1 RNA with C25U, C26U, C29U, U31C
DNA 1: CAATCTGAATTCCGGTCTCCC
DNA 2: TGGTGGCTACGACGGGATT
B16: GAUGGCG (DNA:RNA)
RNA: B6 RNA with A28G, C31G
DNA 1: CAATCTGAATTCCGGTCTCCC
DNA 2: TGGTGGCTACGACGGGATT
B17: CGGAAAC (DNA:RNA)
RNA: B6 RNA with G25C, A26G, U27G, G29A, C30A
DNA 1: CAATCTGAATTCCGGTCTCCC
DNA 2: TGGTGGCTACGACGGGATT
B18: GUGAGUA (DNA:RNA)
RNA: B6 RNA with A26U, U27G, C30U, C31A
DNA 1: CAATCTGAATTCCGGTCTCCC
DNA 2: TGGTGGCTACGACGGGATT
B19: CUUUGUC (DNA:RNA)
RNA: B6 RNA with G25C, A26U, A28U, C30U
DNA 1: CAATCTGAATTCCGGTCTCCC
DNA 2: TGGTGGCTACGACGGGATT
B20: AUCCACG (DNA:RNA)
RNA: B1 RNA with C25A, C26U, C29A, U30C, U31G
DNA 1: CAATCTGAATTCCGGTCTCCC
DNA 2: TGGTGGCTACGACGGGATT

Substitutions are numbered along the chain they refer to; changes in the protein carry UniProt numbers. Some of the results follow.

This assay addresses T1, RBFOX1 RRM. Put plainly: EMSA; HiTS-Eq, 1 nM pool, 10 min; buffer printed only for the single-RNA assays: 10 mM Tris pH 7.5, 150 mM NaCl, 3.4 mM EDTA, 0.001% NP-40, 30 C. Conditions: tags: His6 N-terminal (pET28a); label: 5' 32P. Put shortly:
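Purified RbFox RRM (wild type or mutant) was equilibrated for 10 min in 50 µL with 1 nM of a 5′-radiolabelled pool of RNA with 7 randomized nucleotides, its flanks annealed to DNA oligonucleotides, across increasing protein concentrations. Free RNA was separated by 8% native PAGE, excised, reverse-transcribed, PCR-barcoded and sequenced on an Illumina HiSeq 2500. Relative association constants came from read-count changes of each variant against the control reaction, normalised to the cognate motif.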
In general terms: In EMSA bound probe runs differently from free probe, usually more slowly.
For the molecule B1, the binding signal is 0.00206 KA relative to UGCAUGU.

On to B2, for which the binding signal is 0.0125 KA relative to UGCAUGU.

Turning to B3, the binding signal was 0.00712 KA relative to UGCAUGU.

Take B4: the binding signal is 0.0206 KA relative to UGCAUGU.

Consider B5, for which the binding signal is 0.000547 KA relative to UGCAUGU.

Regarding B6, the binding signal was 0.00944 KA relative to UGCAUGU.

For B7, the binding signal is 0.00793 KA relative to UGCAUGU.

For B8, the binding signal was 0.0173 KA relative to UGCAUGU.

For the molecule B9, the binding signal is 0.0198 KA relative to UGCAUGU.

B10: the binding signal is 0.0184 KA relative to UGCAUGU.

With B11, the binding signal was 0.00788 KA relative to UGCAUGU.

For B12, the binding signal was 0.00836 KA relative to UGCAUGU.

In the case of B13, the binding signal is 0.00173 KA relative to UGCAUGU.

For B14, the binding signal was 0.0122 KA relative to UGCAUGU.

For B15, the binding signal is 0.0078 KA relative to UGCAUGU.

Turning to B16, the binding signal is 0.027 KA relative to UGCAUGU.

In the case of B17, the binding signal was 0.0206 KA relative to UGCAUGU.

With B18, the binding signal is 0.0113 KA relative to UGCAUGU.

Turning to B19, the binding signal was 0.0202 KA relative to UGCAUGU.

With B20, the binding signal was 0.0022 KA relative to UGCAUGU.
